In PubChem BioAssay AID686971 (National Center for Advancing Translational Sciences (NCATS), 2013):
Where “and” joins values, the source holds several entries; their conditions need not be identical. Equal values may be shown once. In all, about 360,000 compounds went through this assay and about 7,500 (2.1%) were called active. The inconclusive results got no clear call from the source; some entries with a clear call stand among them for comparison. The call rests on the fitted dose curve; in most records, active means well fitted cell-killing curve with a large enough effect; inconclusive means small, poorly fitted or top-dose-only effect, or effect the other way, or another doubt; inactive means no such curve, though single readings can be large or run the other way. No potency is given beside an inconclusive call; the fits are too rough.

Assay: qHTS for induction of synthetic lethality in tumor cells producing 2HG: qHTS for the HT-1080-IDH1KD cell line;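 on activity, negative = toxicity: 0% = DMSO wells and -100% = cell-free medium wells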
Conditions: HT-1080 IDH1 knockdown viability, ATP luminescence, 48 h; activity, negative = toxicity: at 46.1 µM (top of the series) unless noted
In short: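 Knockdown cells (IDH1KD HT-1080) received compounds 2 h after plating at 750 cells/well and were kept 48 h at 37 °C in 5% FBS RPMI. A CellTiter-Glo luminescence read gave % activity for curve fitting.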
Potency means the concentration at half of the fitted maximal effect; tags describe the fitted curve by direction and shape.

Structure (SMILES) | Potency | activity, negative = toxicity
Oc1ccccc1-c1nc(NCc2cccnc2)c2ccccc2n1 | inconclusive [cytotoxic, single point] | –
O=C(Nc1cccc(-c2cccc(Cl)c2)c1)C1CCN(CC2CCOC2)CC1 (centres undefined) | inconclusive [cytotoxic, single point] | –
Cc1cc(C)c(CN2CCC(CO)(CCOc3ccccc3)CC2)cc1C | inconclusive [cytotoxic, single point] | –
C=CCc1ccccc1OCCSc1nc2ccc([N+](=O)[O-])cc2s1 | – | inactive: 3.54%
Cc1c(C(=O)C(=O)N2CCCc3ccccc32)c2ccccc2n1C | inconclusive [cytotoxic, single point] | –
CN(C)S(=O)(=O)c1cc(NC(=O)CSc2ncc(C(F)(F)F)cc2Cl)ccc1Cl | inconclusive [cytotoxic, single point] | –
CCCCNC(=O)C1C(c2ccccc2)=Nc2ccccc2N1C(=O)c1ccc(C(F)(F)F)cc1 (centres undefined) | inconclusive [cytotoxic, partial curve] | –
CCc1cccc(C)c1NC(=O)CSc1nnc(CCCOc2ccc(Cl)cc2Cl)n1C | inconclusive [cytotoxic, single point] | –
CCCCCCCCCCCCCCCC[n+]1ccccc1 | active: 20.6 µM and active: 10.3 µM | –
O=C1CCC(C(=O)N2CCCC(C(=O)c3ccc4ccccc4c3)C2)=NN1 (centres undefined) | – | inactive: -2.34%
Nc1nc2ccc(-c3nc4ccccc4o3)cc2s1 | – | inactive: -18.5%
COc1nnc(-c2ccc(C(=O)N3C[C@@H]4C[C@H](C3)c3cccc(=O)n3C4)cc2)c2ccccc12 | – | inactive: 13.6%
CC1(Cc2ccccc2Cl)C(=O)Nc2c(Cl)ccc(Cl)c21 (centres undefined) | inconclusive [cytotoxic, single point] | –
NC(=O)CC(NC(=O)Cc1cccc2ccccc12)c1ccc(NCCOc2ccccc2)c([N+](=O)[O-])c1 (centres undefined) | inconclusive [cytotoxic, single point] | –
O=C(CCCc1nc(-c2ccc(Cl)cc2)no1)Nc1cccnc1 | inconclusive [cytotoxic, single point] | –
Cc1c(O)c(CN(C)C)cc2c1oc(=O)c1ccccc12 | – | inactive: 8.91%
C=CCc1ccccc1OCC(O)CN1CCN(c2ccccc2OC)CC1 (centres undefined) | inconclusive [cytotoxic, partial curve] | –
CC1(C(=O)NCc2ccc(F)c(F)c2)Cc2c(-c3ccc4c(c3)OCO4)ccnc2O1 (centres undefined) | active: 4.61 µM | –
O=C(NC1CCCCCC1)c1cc(S(=O)(=O)N2CCOCC2)ccc1N1CCCCC1 | inconclusive [cytotoxic, single point] | –
CCOC(=O)C(=Cc1ccc(-c2ccsc2C(=O)OC)o1)C(=O)OCC | inconclusive [cytotoxic, single point] | –
COc1ccc(N=CC2CCCCC2=O)c([N+](=O)[O-])c1 (centres undefined) | – | inactive: 0.138%
COc1ccc(C(=O)NCCNc2nc3cc(C)cc(C)c3cc2C#N)cc1 | inconclusive [cytotoxic, single point] | –
COc1ccc2cc(/C=N/NC(=O)c3ccc(CN(c4cccc(Cl)c4Cl)S(C)(=O)=O)cc3)c(Cl)nc2c1 | inconclusive [cytotoxic, full curve] | –

Structure (SMILES) | Potency | activity, negative = toxicity
CCOC(=O)C1=CCC(c2ccc(F)cc2)N(S(=O)(=O)c2ccc(C)cc2)C1 (centres undefined) | inconclusive [cytotoxic, partial curve, poor fit] | –
Cc1cccc(S(=O)(=O)c2c(N)n(Cc3ccco3)c3nc4ccccc4nc23)c1 | inconclusive [cytotoxic, partial curve] | –
CC(C)(C)c1ccc(N/N=C(\C#N)S(=O)(=O)C(C)(C)C)cc1 | inconclusive [cytotoxic, partial curve] | –
Cc1cc(SCC(=O)N/N=C/c2ccc(O)c(O)c2)c(C)cc1Br | inconclusive [cytotoxic, single point] | –
Cc1ccc(N(CC(N)=O)C2SC(=O)N(Cc3ccccc3)C2=O)cc1 (centres undefined) | – | inactive: -5.24%
COc1ccc(-n2c(-c3ccc(Br)cc3)c[n+]3c2CCc2ccccc2-3)cc1 | active: 16.4 µM | –
CC(C)(C)NNC(=S)Nc1cccc(F)c1 | active: 5.8 µM | –
Cc1cc(=O)[nH]c2c(N=Nc3ccc(O)cc3)c(N)nn12 | inconclusive [cytotoxic, partial curve] | –
O=C(/C=C/c1ccc(Cl)cc1Cl)c1cccnc1 | inconclusive [cytotoxic, single point] | –
Cc1ccc2cc(CCNS(=O)(=O)c3ccc(Cl)cc3)c(=O)[nH]c2c1C | – | inactive: -13.9%
C=CCN1C(=O)/C(=C/c2ccc(OC)cc2)S/C1=N/c1nccs1 | inconclusive [rising, partial curve, poor fit] | –
COc1ccc(N=Cc2c(O)c3ccccc3oc2=O)cc1 | inconclusive [cytotoxic, single point] | –
Cc1nc2cc(NC(=O)c3ccc(S(=O)(=O)N(C)c4ccccc4)cc3)ccc2o1 | inconclusive [cytotoxic, partial curve] | –
Cc1cccc(OCCCCCNCCO)c1 | – | inactive: 5.71% [at 9.24 µM]
CC1=NN(c2ccc(C(F)(F)F)cn2)C(=O)C1 | inconclusive [cytotoxic, single point] | –
Cc1ccc(C)c(N2CCN(C(=O)CCCOc3cc(=O)n(C)c4ccccc34)CC2)c1 | inconclusive [cytotoxic, single point] | –
COc1cccc(CN2C(=O)CN(C3CCCCC3)C(=O)C2c2ccc(F)cc2)c1 (centres undefined) | – | inactive: -14.6%
CC(C)Oc1cc(F)ccc1-c1cc(C(=O)Nc2ccc(F)cc2)[nH]n1 | – | inactive: 23.9%
O=C(Cc1ccccc1)Nc1cccc(NC(=O)c2cccs2)c1 | inconclusive [cytotoxic, partial curve] | –
CCOc1ccc(CC(=O)N/N=C/c2cccnc2)cc1OCC | – | inactive: -0.164%
COc1cc2ccccc2cc1C(=O)N1CCc2ccccc21 | inconclusive [cytotoxic, single point] | –
O=C(Nc1ccc2c(c1)CCC2)c1ccc(F)c(S(=O)(=O)N2CCOCC2)c1 | – | inactive: -14.8%
O=C1CC(c2ccc(F)cc2)Sc2ccccc2N1 (centres undefined) | inconclusive [cytotoxic, single point] | –

Structure (SMILES) | Potency | activity, negative = toxicity
COc1cccc(-c2cnc3c(NC=O)cc(-c4ccc(N(C)C)cc4)cn23)c1 | active: 18.4 µM | –
O=C(NNc1nc(Nc2ccccc2)nc(N2CCOCC2)n1)Nc1ccc(Cl)cc1 | inconclusive [cytotoxic, single point] | –
Cc1cc(C)c2c(N)c3ccccc3nc2n1 | inconclusive [cytotoxic, single point] | –
COc1ccc(/C=C/C(=O)c2sc(-c3ccccc3)nc2C)cc1 | – | inactive: 1.59%
OCC1(Cc2cccc(C(F)(F)F)c2)CCN(Cc2cc(F)cc(F)c2)CC1 | inconclusive [cytotoxic, single point] | –
COc1ccc(CN(C)C2CCCCC2)c(C)c1C | inconclusive [cytotoxic, single point] | –
O=c1c2cn[nH]c2nc(SCc2c(F)cccc2F)n1-c1ccc(Cl)cc1 | inconclusive [cytotoxic, single point] | –
O=C(CSc1ccc(C(F)(F)F)cc1[N+](=O)[O-])Nc1ccc2ccccc2c1 | inconclusive [cytotoxic, single point] | –
O=c1c2cc(N3CCOCC3)ccc2[nH]c(=S)n1Cc1cccc(Cl)c1 | – | inconclusive: -17.9% [cytotoxic]
CCN(C(=O)CSc1nnc(-c2cccc(F)c2)n1N)c1c(N)n(Cc2ccccc2)c(=O)[nH]c1=O | – | inactive: 0.339%
COc1ccc(C(O)c2nc3ccccc3n2C(C)C)cc1 (centres undefined) | inconclusive [cytotoxic, single point] | –
CC(=O)SC(C[N+](=O)[O-])c1cn(C(C)=O)c2ccccc12 (centres undefined) | inconclusive [cytotoxic, single point] | –
Cc1ccc(C(=O)NCC(=O)NC23CC4CC(CC(C4)C2)C3)cc1 | – | inactive: -1.78%
O=C(Nc1nc2ccc(SC(F)F)cc2s1)c1ccc(NS(=O)(=O)c2ccc(F)c(F)c2)cc1 | inconclusive [cytotoxic, single point] | –
CCOc1ccccc1Nc1cc(C)nc2ccc(C)cc12 | inconclusive [cytotoxic, partial curve] | –
CN1\C(=C/C=C/C=C/C=[N+](C)C)C(C)(C)c2ccccc21 | inconclusive [cytotoxic, single point] | –
CS(=O)(=O)N(CC(=O)NCc1ccccc1Cl)C1CCCCC1 | – | inactive: 12.4%
CC(C)(C)NC(=O)C(OC(=O)c1cccs1)c1ccc(F)cc1 (centres undefined) | – | inactive: 0.166%
COc1ccc(-c2csc(NC(=O)c3ccccc3NS(=O)(=O)c3ccc(F)c(F)c3)n2)cc1 | active: 1.64 µM | –
O=C(Nc1ccc(F)cc1)N1CCN(c2ccc3nnc(-c4ccc(F)cc4)n3n2)CC1 | inconclusive [cytotoxic, partial curve] | –
CCOc1ccc(C(=O)Nc2ccc(N3CCN(C)CC3)cc2)cc1Br | inconclusive [cytotoxic, single point] | –
CNc1nc(-c2ccc3c(c2)CCN3S(=O)(=O)c2ccccc2)c(C)s1 | inconclusive [cytotoxic, single point] | –
O=C(NCC12CC3CC(CC(C3)C1)C2)c1nn2c(c1Cl)NC(c1ccco1)CC2C(F)(F)F (centres undefined) | inconclusive [cytotoxic, single point] | –
